Data reported in the supplement of paper PMC7125110.
± gives the standard error. This sample is rich in variants without activity.

B1: glmS ribozyme (parent)
chain: AUAAAAGCGCCAGAACUACAGAAAUGUAGUUGACGAGGAGGAGGUUUAUCGAAUUUUCGGCGGAUGCCUCCAAA

Columns and labels:
Conditions in all cases: with glucosamine-6-phosphate
glucosamine-6-phosphate [1] = variants of: B1; assay: self-cleavage kobs at 40 uM GlcN6P; higher = faster cleavage; RNA array
Procedure, shortened: (§1)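 Barcoded ribozyme variants, transcribed in situ by E. coli RNA polymerase on sequenced MiSeq chips, were followed via a hybridised Cy3 probe at 37 °C. Glucosamine-6-phosphate ranged from 40 μM to 10 mM in HEPES/KCl/Mg(OAc)2 buffer. kobs came from decay fits to per-tile medians, and kcat and KM from weighted Michaelis–Menten fits.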

glucosamine-6-phosphate [2] = variants of: B1; assay: self-cleavage kobs at 640 uM GlcN6P; higher = faster cleavage; RNA array
Procedure, shortened: as §1

glucosamine-6-phosphate [3] = variants of: B1; assay: self-cleavage kobs at 160 uM GlcN6P; higher = faster cleavage; RNA array
Procedure, shortened: as §1

glucosamine-6-phosphate [4] = variants of: B1; assay: self-cleavage kobs at 2500 uM GlcN6P; higher = faster cleavage; RNA array
Procedure, shortened: as §1

glucosamine-6-phosphate [5] = variants of: B1; assay: self-cleavage kobs at 10000 uM GlcN6P; higher = faster cleavage; RNA array
Procedure, shortened: as §1

Variant | self-cleavage kobs at 40 uM GlcN6P (glucosamine-6-phosphate [1]) [s⁻¹] | self-cleavage kobs at 640 uM GlcN6P (glucosamine-6-phosphate [2]) [s⁻¹] | self-cleavage kobs at 160 uM GlcN6P (glucosamine-6-phosphate [3]) [s⁻¹] | self-cleavage kobs at 2500 uM GlcN6P (glucosamine-6-phosphate [4]) [s⁻¹] | self-cleavage kobs at 10000 uM GlcN6P (glucosamine-6-phosphate [5]) [s⁻¹]
A12U U31A | 0.000416 ± 7.3e-05 | 0.00457 ± 0.0011 | 0.00177 ± 0.00045 | – | –
A12U U45A A53U | 0.00437 ± 0.0009 | – | – | – | –
A12U U45G | 0.000515 ± 6.4e-05 | 0.00546 ± 0.0011 | 0.00127 ± 0.00021 | 0.0134 ± 0.0027 | 0.0165 ± 0.0026
A12U U46C U49G U65C | < 1e-05 | – | – | – | –
A12U U47A | 0.00189 ± 0.00018 | – | – | – | –
A12U U54A U69A | 0.000126 ± 4.4e-05 | 0.000125 ± 2.7e-05 | 0.000159 ± 4.6e-05 | 0.000458 ± 9.4e-05 | 0.000322 ± 6.8e-05
A12U U69G | 2.68e-05 ± 8.8e-06 | 9.2e-05 ± 1e-05 | 2.7e-05 ± 8.8e-06 | 0.000109 ± 1e-05 | 0.000145 ± 1.5e-05
G13A | 1.56e-05 ± 1.7e-06 | 0.000162 ± 3.8e-06 | 4.65e-05 ± 1.7e-06 | 0.00057 ± 3.3e-05 | 0.000945 ± 3.6e-05
G13A A14G A36U G44A A48U U65A | < 1e-05 | – | – | < 1e-05 | < 1e-05
G13A A15C A52G A53C | < 1e-05 | – | – | – | –
G13A A33G G43C C50U | < 1e-05 | – | – | – | < 1e-05
G13A A36U G51U | < 1e-05 | < 1e-05 | – | < 1e-05 | < 1e-05
G13A A48U | < 1e-05 | < 1e-05 | < 1e-05 | – | –
G13A A52C | < 1e-05 | < 1e-05 | < 1e-05 | < 1e-05 | < 1e-05
G13A A52U | < 1e-05 | – | < 1e-05 | – | –
G13A C16U C67U | < 1e-05 | – | – | 0.000111 ± 2.7e-05 | 0.00025 ± 4.5e-05
G13A C34U A36U | < 1e-05 | – | – | – | < 1e-05
G13A C68U C71A | < 1e-05 | – | – | – | < 1e-05
G13A G29U A39G G40A C58A C70G | < 1e-05 | – | – | < 1e-05 | < 1e-05
G13A G32A G35A G40A C71U | < 1e-05 | < 1e-05 | – | < 1e-05 | < 1e-05
G13A G32U A36U | < 1e-05 | – | – | – | < 1e-05
G13A G35U | < 1e-05 | < 1e-05 | < 1e-05 | – | < 1e-05
G13A G37C | < 1e-05 | < 1e-05 | < 1e-05 | < 1e-05 | < 1e-05
G13A G44A | < 1e-05 | – | – | – | –

Variant | self-cleavage kobs at 40 uM GlcN6P (glucosamine-6-phosphate [1]) [s⁻¹] | self-cleavage kobs at 640 uM GlcN6P (glucosamine-6-phosphate [2]) [s⁻¹] | self-cleavage kobs at 160 uM GlcN6P (glucosamine-6-phosphate [3]) [s⁻¹] | self-cleavage kobs at 2500 uM GlcN6P (glucosamine-6-phosphate [4]) [s⁻¹] | self-cleavage kobs at 10000 uM GlcN6P (glucosamine-6-phosphate [5]) [s⁻¹]
G13A G60C | < 1e-05 | < 1e-05 | – | – | < 1e-05
G13A G63A | < 1e-05 | – | – | – | –
G13A U30C A42U | < 1e-05 | – | – | – | < 1e-05
G13A U47C | < 1e-05 | – | – | – | 4.92e-05 ± 1.1e-05
G13A U49G | < 1e-05 | – | < 1e-05 | – | –
G13A U54A | 5.62e-05 ± 2.4e-05 | 0.000147 ± 3.8e-05 | 5.51e-05 ± 1.6e-05 | 0.000299 ± 5.6e-05 | 0.000709 ± 0.0001
G13A U56A G60C G62A C67G C71U | < 1e-05 | – | – | – | –
G13C A14C A39U G62C | < 1e-05 | – | < 1e-05 | – | < 1e-05
G13C A39C U49C G62C | < 1e-05 | – | – | – | –
G13C A39U G59U | < 1e-05 | – | – | – | –
G13C A42U | < 1e-05 | – | < 1e-05 | < 1e-05 | –
G13C A48U C70G | < 1e-05 | – | – | – | –
G13C A48U C70U | < 1e-05 | < 1e-05 | – | – | < 1e-05
G13C C34G G38U G51A | < 1e-05 | – | – | – | –
G13C G29U G32A | 7.61e-05 ± 2.4e-05 | – | – | – | 0.00214 ± 0.00069
G13C G35C G60U | < 1e-05 | – | – | – | < 1e-05
G13C G38C | < 1e-05 | – | – | < 1e-05 | < 1e-05
G13C G40C | < 1e-05 | – | – | – | –
G13C G40U | < 1e-05 | < 1e-05 | < 1e-05 | – | –
G13C G40U A53U G59U | < 1e-05 | – | – | – | < 1e-05
G13C G41U | < 1e-05 | – | < 1e-05 | – | –
G13C G43A G63A A64G | < 1e-05 | – | – | – | < 1e-05
G13C G43C | < 1e-05 | < 1e-05 | < 1e-05 | < 1e-05 | < 1e-05
